38 compounds from PubChem BioAssay AID1745853 (National Center for Advancing Translational Sciences (NCATS), 2022) can be followed below.

This is one part of the list. The main result of the screen is listed elsewhere. These columns were measured beside it and carry no call.

Assay in all cases: Primary Screen for Target Class Profiling of Small Molecule Inhibitors of Methyltransferases
In assay [1] the target is Glycine N-methyltransferase (Homo sapiens) (UniProt Q14749). The settings on record: purified enzyme, MTase-Glo SAH luminescence; measured here: GNMT inhibition; at 40 µM; stronger effect = lower value. The procedure, abridged:
(§1)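 Each enzyme was assayed with SAM and its substrate. SAH formation detected by MTase-Glo luminescence; single-point 40 uM screen[…].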

Assay [2] addresses Guanidinoacetate N-methyltransferase (Homo sapiens) (UniProt Q14353). The settings on record: purified enzyme, MTase-Glo SAH luminescence; measured here: GAMT inhibition; at 40 µM; stronger effect = lower value. The procedure, abridged: as §1
The target of assay [3] is Histamine N-methyltransferase (Homo sapiens) (UniProt P50135). The settings on record: purified enzyme, MTase-Glo SAH luminescence; measured here: HNMT inhibition; at 40 µM; stronger effect = lower value. The procedure, abridged:
as §1

Assay [4] deals with Nicotinamide N-methyltransferase (Homo sapiens) (UniProt P40261). The conditions noted are these: purified enzyme, MTase-Glo SAH luminescence; measured here: NNMT inhibition; at 40 µM; stronger effect = lower value. The procedure, abridged: as §1
For assay [5], the target named is Phenylethanolamine N-methyltransferase (Homo sapiens) (UniProt P11086). The conditions noted are these: purified enzyme, MTase-Glo SAH luminescence; measured here: PNMT inhibition; at 40 µM; stronger effect = lower value. The procedure, abridged:
as §1
On the % scale 0 is the no-effect control and ±100 the full control effect.

Regarding `COc1ccc(-c2cc3n(n2)CC(C)(C(=O)NCc2ccccc2OC)N(Cc2cccc(OC)c2)C3=O)cc1` (stereo not given), the activity change, negative = inhibition in assay [1] is 1.68%; in assay [2], 0.456%; in assay [3], 3.76%; in assay [4], -7.6%; in assay [5], -3.19%.
For the compound `Cc1ccc(CNC(=O)c2cc3n(n2)CC(C)(C(=O)NC2CCCC2)N(C)C3=O)cc1` (stereo not given), the activity change, negative = inhibition is 4.99% in assay [1]; 0% in assay [2]; -0.903% in assay [3]; 5.47% in assay [4]; -1.19% in assay [5].
The like results for `O=C(c1ccsc1)N1CCC2(CC1)CN(C1CCC1)CC2CO` (stereo not given) were, in that order, -2.9%, 0.617%, -3.23%, -6.01% and -1.74%.
In the case of `CC(C)S(=O)(=O)N1CCC(N(Cc2cccnc2)C2CCOCC2)CC1`, the activity change, negative = inhibition was -1.98% in assay [1]; 2.03% in assay [2]; 2.07% in assay [3]; -4.98% in assay [4]; -2.51% in assay [5].
The like results for `Cc1ccc(C)c(C(=O)Cn2nc3n(C)c(=O)c4ccc(C(=O)NC5CCCCC5)cc4n3c2=O)c1` were, in that order, 0.548%, 3.89%, 4.64%, 1.08% and 0.2%.
Consider `CCOC(=O)c1cccc(N2C(=O)c3cc4ccccc4n3CC2(C)C(=O)NCCC(C)C)c1` (stereo not given), for which the activity change, negative = inhibition is -1.38% in assay [1]; 6.67% in assay [2]; 0.923% in assay [3]; -3.28% in assay [4]; -2.46% in assay [5].
As to `COc1ccc(CNC(=O)CCCc2nnc3n4nc(C)nc4c4ccccc4n23)cc1`, the activity change, negative = inhibition in assay [1] is -3.94%; in assay [2], 0.029%; in assay [3] it was 4.84%; in assay [4], 11.5%; in assay [5] it was -2.41%.
The corresponding values for `Cc1cc2c(cc3n2CC(C)(C(=O)NC2CCCCCC2)N(C2CCCc4ccccc42)C3=O)o1` (stereo not given) are -7.23%, 0%, -4.54%, -1.92% and -5.91%.
The like results for `COC(=O)c1cc2n(n1)CC(C)(C(=O)NC1CCCC1)N(c1ccccc1C)C2=O` (stereo not given) were, in that order, 0.135%, 1.99%, 0.126%, 4.29% and 0.351%.
Consider `Cc1ccc(S(=O)(=O)c2nnn3c2nc(N2CCCC(C)C2)c2ccccc23)cc1` (stereo not given), for which the activity change, negative = inhibition in assay [1] is -4.96%; in assay [2], 0.369%; in assay [3], 7.82%; in assay [4], 4.39%; in assay [5] it was 1.11%.
Consider `COc1ccc(Cn2c(=O)c3ccccc3n3c(-c4cc(Br)cs4)nnc23)cc1`, for which the activity change, negative = inhibition in assay [1] is -2.37%; in assay [2], 3.22%; in assay [3] it was -1.85%; in assay [4], 2.16%; in assay [5] it was -4.42%.
The like results for `COCCNc1ncccc1-c1noc([C@@H]2CCCN2C2CCN(C)CC2)n1` were, in that order, -4.22%, -5.9%, -13.7%, -6.15% and -4.18%.
The corresponding values for `CCOC(=O)c1cc2n(n1)CC(C)(C(=O)NC1CCCCC1)N(c1cccc(OC)c1)C2=O` (stereo not given) are -2.33%, -0.728%, -2.83%, -3.82% and -4.97%.
The like results for `CC(C)Cn1c(=O)c2ccccc2n2c(CCC(=O)NCCc3ccccc3)nnc12` were, in that order, -3.7%, 2.87%, 1.6%, -12.3% and -2.47%.
On to `CCCCCNC(=O)c1ccc2c(=O)nc3c(-c4cccc(F)c4)n[nH]n3c2c1`, for which the activity change, negative = inhibition in assay [1] was -5.24%; in assay [2] it was 2.68%; in assay [3] it was 0.485%; in assay [4], -4.87%; in assay [5] it was -5.09%.
The like results for `OC1(c2ccc3c(c2)c2c4n3CCN(Cc3ccccc3)C4CCC2)CCCC1` (stereo not given) were, in that order, 0.24%, 4.46%, 0.927%, 2.27% and -3.23%.
The like results for `COC(=O)c1cc2n(n1)CC(C)(C(=O)NC1CCCCCC1)N(c1ccc(OC)cc1)C2=O` (stereo not given) were, in that order, 0.682%, 5.19%, 5.82%, 0.081% and 2.9%.
The like results for `O=[N+]([O-])c1cccc2[nH]c(CNc3nc(N4CCOCC4)nc4c3ncn4-c3ccsc3)nc12` were, in that order, -5.31%, 7.59%, 8.48%, -18.1% and 3.21%.
`Cc1csc(NC(=O)c2sc3nc4c(c(C(F)(F)F)c3c2N)CCC4)n1`: the activity change, negative = inhibition in assay [1] was -6.92%; in assay [2], -3.91%; in assay [3] it was -11%; in assay [4] it was -25.7%; in assay [5] it was -15%.
The corresponding values for `CC1CC(C)CN(CCCN2C(=O)c3cc4sccc4n3CC2(C)C(=O)NC2CCCCCCC2)C1` (stereo not given) are 9.82%, 0%, 5.87%, 4.49% and -2.21%.
`Nc1ncnc2c1c(COc1cccc(Cl)c1)nn2C1CCOCC1`: the activity change, negative = inhibition in assay [1] was -5.72%; in assay [2], -2.05%; in assay [3] it was 1.91%; in assay [4], -31.5%; in assay [5], -32.3%.
Take `CC1(C(=O)NCc2ccc(F)cc2)Cn2cnc(C(=O)NCCc3ccc(Cl)cc3)c2C(=O)N1C1CC1` (stereo not given): the activity change, negative = inhibition in assay [1] was 2.2%; in assay [2], 0%; in assay [3], 10.9%; in assay [4], 8.03%; in assay [5], 6.37%.
The corresponding values for `c1ccc(CO[C@H]2COCCN(c3nc4ccccc4o3)C2)cc1` are -3.36%, -1.35%, -57.7%, -14.7% and 1.7%.
On to `C=CCn1c(=O)c2ccc(C(=O)NC(C)C)cc2n2c(=O)n(CC(=O)Nc3ccc(C)cc3C)nc12`, for which the activity change, negative = inhibition in assay [1] worked out at 5.45%; in assay [2] it was 0%; in assay [3] it was 9.49%; in assay [4] it was 6.74%; in assay [5], 5.16%.
`COc1ccc(CCC(=O)N2CCC3(CC2)CC(Cc2nc(-c4cnccn4)no2)CCO3)cc1` (stereo not given): the activity change, negative = inhibition in assay [1] was -5.99%; in assay [2], -9.21%; in assay [3] it was -1.7%; in assay [4], -16.1%; in assay [5], -7.26%.
The like results for `CCOC(=O)C1(Cc2ccc(F)cc2)CCCN(C(=O)c2cc3nc(C)cc(C)n3n2)C1` (stereo not given) were, in that order, -7.67%, -2.21%, -0.554%, -5.25% and 4.83%.
With `COc1ccc2cc3n(c2c1)CC(C)(C(=O)NC1CCCC1)N(CC(C)c1ccccc1)C3=O` (stereo not given), the activity change, negative = inhibition in assay [1] is -2.49%; in assay [2] it was 2.8%; in assay [3] it was -5.06%; in assay [4], -2.27%; in assay [5], -2.22%.
The like results for `CCCC1c2cccn2CCN1C(=O)Nc1cc(C)ccc1OC` (stereo not given) were, in that order, 1.34%, 0%, -16.1%, 2.26% and 4.8%.
The corresponding values for `O=C(NC1CCN(CC(F)(F)F)CC1)c1ccc(-c2cccc(F)c2)nc1` are 2.23%, 0.732%, 8.03%, -17.7% and -0.369%.
For the compound `CC(C)OCCCNC(=O)C1c2c(n(C)c3ccccc23)SCC(=O)N1CCc1ccsc1` (stereo not given), the activity change, negative = inhibition in assay [1] was -4.87%; in assay [2], 0.366%; in assay [3], 4.7%; in assay [4], 1.51%; in assay [5], 0.217%.
The like results for `COc1cccc(CN2C(=O)c3ccc(-c4ccccc4)n3CC2(C)C(=O)NC2CCCCCC2)c1` (stereo not given) were, in that order, 0.501%, -0.653%, -2.59%, -12.2% and -5.11%.
Take `COc1ccc2cc3n(c2c1)CC(C)(C(=O)NC1CCCC1)N(C1CCCC1)C3=O` (stereo not given): the activity change, negative = inhibition was 5.61% in assay [1]; 0.541% in assay [2]; 12.7% in assay [3]; 3.79% in assay [4]; 1.23% in assay [5].
The corresponding values for `CCCN1C(=O)c2c(C(=O)NCc3ccccc3OC)ncn2CC1(C)C(=O)NCc1ccc(C)cc1` (stereo not given) are -0.105%, 0%, 9.25%, 10.9% and 8.81%.
The corresponding values for `Cc1ccc(C2c3cccn3-c3sc4c(c3CN2C(=O)Nc2cc(F)ccc2F)CCCC4)cc1` (stereo not given) are -4.43%, -9.81%, 0.779%, -10.1% and -3.3%.
As for `O=C(Nc1ccc2c(c1)OCCO2)N[C@@H]1C[C@H](CO)[C@@H](O)[C@H]1O`, the activity change, negative = inhibition was -5.69% in assay [1]; -7.1% in assay [2]; -5.55% in assay [3]; -13% in assay [4]; -7.49% in assay [5].
Take `Cc1c(Cl)cccc1N1C(=O)c2cc(-c3cccs3)nn2CC1(C)C(=O)NC1CCCCC1` (stereo not given): the activity change, negative = inhibition in assay [1] is -6.98%; in assay [2], 2.34%; in assay [3], -4.02%; in assay [4], -0.676%; in assay [5], -3.84%.
Regarding `Nc1nc2c(ncn2CCC(CO)CO)c(=O)[nH]1`, the activity change, negative = inhibition in assay [1] was -8.16%; in assay [2] it was -13.8%; in assay [3], -2.72%; in assay [4] it was -29.4%; in assay [5], -3.54%.
The corresponding values for `O=C(Cn1ccc2cc(S(=O)(=O)N3CCCCC3)ccc21)NCc1ccccc1F` are -0.943%, 2.48%, -5.88%, -10.8% and -6.61%.
